The campaign covered roughly 310,000 compounds. About 11,000 (3.5%) were called active. Inconclusive results, whose numbers are uncertain, are shown with a selection of clear calls. The call rests on the fitted dose curve; in most records, active means well fitted inhibition curve with a large enough effect; inconclusive means small, poorly fitted or top-dose-only effect, or effect the other way; inactive means flat fitted curve, though single readings scatter. Potencies of inconclusive entries are left out as doubtful fits.
Assay: VP16 counterscreen qHTS for inhibitors of ROR gamma transcriptional activity;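 further: Gal4-VP16 expression switched on by copper sulfate through the metallothionein promoter; nearly all actives have a fitted effect of over 50% in size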
Conditions: Drosophila S2 Gal4-VP16 UAS-luciferase, luminescence, 20 h; activity, negative = inhibition: at 53.6 µM (top of the series)
On the % scale 0 is the no-effect control and ±100 the full control effect; potency means the concentration at half of the fitted maximal effect; tags describe the fitted curve by direction and shape.

Which “activity, negative = inhibition” value does the source give for `Cc1ccc(S(=O)(=O)NC(=O)N(CCC#N)Cc2ccccc2)cc1` here?
Its value is inactive: -8.21%.

With `COc1ccc([C@@H](C)C(=O)c2ccc(O)cc2O)cc1` as the molecule, how does the “activity, negative = inhibition” value read?
The value was inactive: -0.241%.

For `C=C(C(=O)c1ccccc1)C(C(=C)C(=O)c1ccccc1)c1ccc(OC)cc1`, which “activity, negative = inhibition” value is on record?
The value was inactive: -7.75%.

With `O=C(Nc1cccc(C(F)(F)F)c1)c1cc2c(s1)-c1ccccc1OC2` as the molecule, how does the Potency read?
The Potency was inconclusive [inhibitor, single point].

For `CS(=O)(=O)N1CCc2cc(S(=O)(=O)Nc3ccc4c(c3)OCCO4)ccc21`, which Potency is on record?
Its Potency is active: 17.8 µM.

Which Potency does the source give for `CC(/C=C/C=C/c1ccccc1)=N\NC(=O)c1cccnc1` here?
The Potency was active: 3.16 µM.

For `COc1cc(/C=C/c2sc3ccccc3[n+]2CCCS(=O)(=O)[O-])ccc1O`, which Potency is on record?
Its Potency is inconclusive [inhibitor, single point].

For `COc1ccc(NC(=S)NC(NC(=O)C(C)C)C(Cl)(Cl)Cl)c([N+](=O)[O-])c1` (stereo unspecified), which Potency is on record?
The Potency was inconclusive [inhibitor, single point].

Which Potency does the source give for `Cc1ccc2[nH]c3c(c2c1)CCCC3NC(=O)CCl` (stereo unspecified) here?
The Potency was inconclusive [inhibitor, single point].

With `CCN(CCNC(=O)C1CCN(Cc2nc(-c3ccc(Cl)cc3)oc2C)CC1)c1ccccc1` as the molecule, how does the Potency read?
The Potency was inconclusive [inhibitor, single point].

For `COc1ccc(/C=C/C(=O)OCC(=O)N2CC(=O)Nc3ccccc32)cc1S(=O)(=O)N1CCOCC1`, which “activity, negative = inhibition” value is on record?
Its value is inactive: -5.38%.

With `COc1ccc(/C=N/NC(=O)c2cccc([N+](=O)[O-])c2)cc1OC(=O)c1ccccc1` as the molecule, how does the Potency read?
Its Potency is inconclusive [inhibitor, single point].

For `N#CCCN(Cc1cccnc1)C(=O)c1sc2cc(F)ccc2c1Cl`, which Potency is on record?
The Potency was inconclusive [inhibitor, single point].

For `CC1=C(CO)C(=O)OC([C@@H](C)C2CC[C@H]3C4C[C@H]5O[C@]56[C@@H](O)C=CC(=O)[C@]6(C)C4CC[C@]23C)C1` (stereo partly specified), which Potency is on record?
The Potency was inconclusive [inhibitor, single point].

Which Potency does the source give for `O=C(Nc1cccc(Cl)c1)N1CCN(C/C=C/c2ccccc2)CC1` here?
Its Potency is inconclusive [inhibitor, single point].

For `Clc1ccsc1-c1ccnc(-n2cccc2)n1`, which Potency is on record?
The Potency was inconclusive [activator, single point].

With `Cc1noc(C)c1COC(=O)c1cc(C)n(-c2ccccc2)c1C` as the molecule, how does the Potency read?
Its Potency is inconclusive [inhibitor, single point].

Which Potency does the source give for `CNC(=S)NNC(=O)c1ccc(=O)n(Cc2ccc(Cl)cc2Cl)c1` here?
Its Potency is inconclusive [inhibitor, single point].

With `CN(C(=S)Nc1ccc(SC(F)F)cc1)c1ccc(O)cc1` as the molecule, how does the Potency read?
Its Potency is inconclusive [inhibitor, single point].

With `CCSc1nnc(NC(=O)c2ccc3ccccc3n2)s1` as the molecule, how does the Potency read?
The Potency was active: 0.708 µM.

For `CCSc1nnc(NC(=O)CSc2nnc(Cc3cccn3C)n2CCc2ccccc2)s1`, which Potency is on record?
Its Potency is inconclusive [activator, partial curve].

For `O=C(COC(=O)c1cc([N+](=O)[O-])ccc1N1CCOCC1)Nc1cccc(F)c1`, which “activity, negative = inhibition” value is on record?
The value was inactive: -8.81%.

For `CC(C)C(=O)N1CCN(c2ccccc2NC(=S)NC(=O)c2cccs2)CC1`, which Potency is on record?
Its Potency is inconclusive [inhibitor, partial curve, poor fit].

Which “activity, negative = inhibition” value does the source give for `Clc1ccc(-c2nnc(COc3ncnc4ccccc34)o2)cc1` here?
Its value is inactive: -13.1%.

Which Potency does the source give for `O=C(NCc1ccc2c(c1)OCO2)c1ccc2c(c1)N(Cc1c(F)cccc1Cl)C(=O)CS2` here?
The Potency was inconclusive [inhibitor, single point].

Which “activity, negative = inhibition” value does the source give for `CCCN(CC(=O)Nc1ccccc1OC)C(=O)c1ccc(=O)[nH]c1` here?
Its value is inactive: 0.36%.

For `CCCCc1cc(=O)oc2cc(C)cc(O)c12`, which Potency is on record?
The Potency was inconclusive [inhibitor, single point].

With `CSc1nc(NCCOCCO)c2sc3nc(-c4ccco4)c4c(c3c2n1)CCC4` as the molecule, how does the “activity, negative = inhibition” value read?
Its value is inactive: -3.17%.

Which “activity, negative = inhibition” value does the source give for `Cn1cccc1/C=N/NC(=O)CNc1ccc2ccccc2c1` here?
The value was inactive: -2.22%.

For `Cc1ccc(C(=O)O/N=C(\N)c2ccccn2)cc1`, which Potency is on record?
Its Potency is active: 12.6 µM.

With `CC(C)(C)c1ccc(OCCOc2ccc(C(C)(C)C)cc2NC=O)c(NC=O)c1` as the molecule, how does the Potency read?
Its Potency is inconclusive [inhibitor, single point].

Which Potency does the source give for `CC(C(=O)N1c2ccccc2Sc2ccccc21)n1nnc(-c2cccs2)n1` (stereo unspecified) here?
The Potency was inconclusive [inhibitor, single point].

For `Cc1ccc(Oc2nnc(-c3cccs3)c3ccccc23)cc1C`, which Potency is on record?
The Potency was inconclusive [inhibitor, single point].

For `Cc1cc(-c2nnc(-c3cccc(C(F)(F)F)c3)o2)no1`, which Potency is on record?
The Potency was inconclusive [activator, partial curve].

With `O=C(C#Cc1ccccc1)c1cccc([N+](=O)[O-])c1` as the molecule, how does the Potency read?
The Potency was active: 6.31 µM.

Which Potency does the source give for `CN1CCN(CCC=C2c3ccccc3Sc3ccc(S(=O)(=O)N(C)C)cc32)CC1` here?
Its Potency is inconclusive [inhibitor, single point].

With `CC(C)c1ccc(/C=N/NC(=O)CCNC(=O)c2ccccc2)cc1` as the molecule, how does the Potency read?
Its Potency is inconclusive [inhibitor, single point].

Which “activity, negative = inhibition” value does the source give for `Cc1ccc(-c2nnc(SCC(=O)N/N=C/c3ccc(C(=O)O)cc3)n2C2CCCCC2)cc1` here?
Its value is inactive: 0.696%.

Which Potency does the source give for `N#Cc1c(C(F)(F)F)cc(=O)n2c1[nH]c1ccccc12` here?
The Potency was inconclusive [inhibitor, single point].

For `COc1cccc(-c2nc3ccccc3s2)c1`, which Potency is on record?
Its Potency is inconclusive [inhibitor, full curve].

Which “activity, negative = inhibition” value does the source give for `COc1ccc(COc2ccsc2C(=O)Nc2ccc(Cl)c(Cl)c2)cc1` here?
The value was inactive: 2.16%.

Which “activity, negative = inhibition” value does the source give for `N=c1n(CCCOc2ccc(Br)cc2)c2ccccc2n1CC(N)=O` here?
Its value is inactive: 2.09%.

For `COc1ccc(/C=C2\Oc3cc(OCC(N)=O)ccc3C2=O)cc1OC`, which Potency is on record?
Its Potency is inconclusive [inhibitor, single point].

Which Potency does the source give for `COc1ccc(C)cc1C(=O)CCC(=O)Nc1ccccc1N1CCOCC1` here?
Its Potency is inconclusive [inhibitor, single point].

Which “activity, negative = inhibition” value does the source give for `Cn1c(CC(=O)Nc2ccccc2F)nnc1SCC(=O)Nc1nccs1` here?
The value was inactive: -1.81%.

Which Potency does the source give for `COc1cc(NC(=S)N2CCCC(C)C2)c(OC)cc1Cl` (stereo unspecified) here?
The Potency was inconclusive [inhibitor, single point].
